From the RNAGym collection of RNA variant scans (doi:10.1101/gad.245936.114)
Variants at the floor of the assay are shown more often than the library holds them.

B1: tRNA (parent)
chain: CUCUCGGUAGCCAAGUUGGUUUAAGGCGCAAGACUUUAAUUUAUCACUACGAAAUCUUGAGAUCGGGCGUUCGACUCGCCCCCGGGAGAUUUUUUCCUCGAGCAA

Variants of: B1
Test: nonsense suppression (GFP-seq) (ratio to wild type); higher = more function; SUP4oc tRNA, yeast GFP reporter sort-seq
Procedure, shortened: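 To measure nonsense suppression, tRNA variants from a library carrying ~3% random mutations were integrated into the yeast genome alongside RFP and a GFP ochre reporter under galactose control. Growth took place in raffinose/galactose medium supplemented with 80 mg/L adenine, followed by sorting into GFP/RFP bins and Illumina sequencing of each bin (phred ≥30). For each variant with ≥100 reads and ≥30 cells, the bin median GFP/RFP values were weighted by its estimated cell share per bin and referenced to the unmutated parent tRNA.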

Variant	nonsense suppression
C11U U70G C79A	≤ 0.026
C12G U16C A23G	0.207
C12A G61C G66C	≤ 0.026
C12A U21C G25U G65A	≤ 0.026
C12G U55A	≤ 0.026
A13C C29G C75U	≤ 0.026
C12A A33U	≤ 0.026
A13C A30G	0.892
C12U G32C C77U G78U	≤ 0.026
C12A U20G G32A	≤ 0.026
A13C A23U G67U C79G G88A	≤ 0.026
C12U G32C	≤ 0.026
C12U U58G A62G	≤ 0.026
C11U U21A A30U	≤ 0.026
C12U C34G G61U A87G	≤ 0.026
C12G C34G U57C U58C	≤ 0.026
C12A G32A G86C	≤ 0.026
C12A A54C G61A	≤ 0.026
A13C A62G	0.0702
C12U A13U	0.626
C12U A13C	0.2
C12G U57A	≤ 0.026
C12G G15C A60U G61U U70G	≤ 0.026
C12U U17C A89U	≤ 0.026

Variant	nonsense suppression
C12U U17C A89G	≤ 0.026
A13C G69U	≤ 0.026
A13C A23U C27G	≤ 0.026
C12U U17G U35A	≤ 0.026
C12U U58G	≤ 0.026
C11U U55G U57C C75U	≤ 0.026
C12G G28A G66C	≤ 0.026
C12G U57G A74U C79A	≤ 0.026
A13C G28C	0.794
A13C G18C U20G A31U	0.134
C12U C72U	≤ 0.026
C12U C72A	≤ 0.026
C12G G88C	≤ 0.026
C12A C29G	≤ 0.026
A13C G28U U57A G86C	≤ 0.026
C11U U63A	≤ 0.026
C12G A89C	≤ 0.026
C12G U21G U22G	≤ 0.026
C12U A33C C80G	≤ 0.026
C12G A33G C83G	≤ 0.026
C12A U55G	≤ 0.026
C11U U17G G88C	≤ 0.026
C12A A60U A62C G65A G78C	≤ 0.026
A13C U21A C34U A60U	≤ 0.026

Variant	nonsense suppression
A13C C27U A87C	≤ 0.026
C12U A30C C83U	≤ 0.026
C12U G61U	0.248
A13C G61A C75G	0.761
C12A A23U	≤ 0.026
C12A C72A G85C	≤ 0.026
C12A C29U C34A U55C A74U	≤ 0.026
C12G G65C	≤ 0.026
C12U G26A	≤ 0.026
C12A G86U	≤ 0.026
C12A C34G U63A G65A A87U A89U	≤ 0.026
A13C G73A	0.394
A13C C82A	≤ 0.026
C12G U21C G59U G88C	≤ 0.026
C12U A30C C56G	≤ 0.026
C12U A14C U16A	≤ 0.026
C12G C68A G85C	≤ 0.026
C12A G18U A23G A31G	≤ 0.026
A13C C72U	0.23
A13C C75U G85U	0.333
C12U G15C C72G C77U	≤ 0.026
C12G C80G G86C	≤ 0.026
C12G U22G C27U	≤ 0.026
C12G G86U	≤ 0.026

Variant	nonsense suppression
C12U U20G G84C	≤ 0.026
C12A A23C G73C	≤ 0.026
C12A U20A	≤ 0.026
C12U G65U A74C	≤ 0.026
C12A G69C G85A G86U G88U	≤ 0.026
A13C G86U	≤ 0.026
C12G C68G G69U A89U	0.0702
C11U U17C C29G G32U G59A	≤ 0.026
C12U C34A A62G G69U	≤ 0.026
C12A U63G G86A	≤ 0.026
C12A A13C U21G U57C A62U A74C	≤ 0.026
C12A G28C A31C U70C G73A	≤ 0.026
C12A C77A G86U	≤ 0.026
A13C C75G G88A	≤ 0.026
A13C C27G G69A G86U A89C	≤ 0.026
C12G A33C A74C	≤ 0.026
C12A A14G	≤ 0.026
A13C U20G C27A A87U	≤ 0.026
A13C A23U A62G C82A	≤ 0.026
C12U U35C U58A	≤ 0.026
C12A G65A G84A	≤ 0.026
A13C G59A G61U	≤ 0.026
C12U U58G A60C	≤ 0.026
A13C G59A	≤ 0.026

Variant	nonsense suppression
C11U U55A C81A	≤ 0.026
A13C G67U C83G	≤ 0.026
C12G G69A G84U	≤ 0.026
C11U U21A	≤ 0.026
A13C G15C G18C	≤ 0.026
C12A G19U A24G G28U A62U	≤ 0.026
C12A C64G U76G	≤ 0.026
C12A A54U	≤ 0.026
C12U U22C G25C U55G G59A U63G	≤ 0.026
C12U A60G U71C	≤ 0.026
C12G U35G	≤ 0.026
C11U U21C G61A A87U	≤ 0.026
A13C G18C U35G U70C	≤ 0.026
C12A A31G	0.0261
C12A A31C	≤ 0.026
C12A G28C A31G U57G	≤ 0.026
C12A A24C U63A	≤ 0.026
A13C A23U	≤ 0.026
C12G A24C U55G G66C	≤ 0.026
C12G G59A G61A	≤ 0.026
C12U G59C A87U	≤ 0.026
C12A A23C U35A G73A	≤ 0.026
C12U A13G A30U U71G	≤ 0.026
A13C C81A A89G	≤ 0.026

Variant	nonsense suppression
C12U A30C G59C G61U	≤ 0.026
C11U U57G	≤ 0.026
C12G C34G U71C C80U G88A	≤ 0.026
C11U U71A G73C	≤ 0.026
C12U C34A U70G C83G	≤ 0.026
C12A U22G C81G	≤ 0.026
C12A U21A A54U G69U	≤ 0.026
A13C G61U C68U	0.414
C12U C29U A54G C68A C75G	≤ 0.026
A13C A60G G78U	≤ 0.026
C11U U57G U76A G85U A87G	≤ 0.026
A13C U17G C75A	1.1
C12G A14C U20C A31U	≤ 0.026
A13C G32A C68G A89U	≤ 0.026
C12A A30U C75G	≤ 0.026
C12G G66A C80A	≤ 0.026
C12U G32U U58C G61U	≤ 0.026
A13C C79G C80A	≤ 0.026
C12U U35A C77U	≤ 0.026
C12G U21A G59U	≤ 0.026
C12U A23C U70C	≤ 0.026
C12G U22G C83U G86C	≤ 0.026
C12G C64A A74U	≤ 0.026
C11U U21C U55A U63C C75G	≤ 0.026

Variant	nonsense suppression
C12U G67C A74C	≤ 0.026
C12A G65A	≤ 0.026
C12U A60G G73U	≤ 0.026
C12A U35A C81G	≤ 0.026
C12G A60U G65U	≤ 0.026
C12G G59U G84A	≤ 0.026
C12A A13G U17A C64U	≤ 0.026
A13C G78A	0.208
C12U U20G C80G	≤ 0.026
C12G G25A G69C	≤ 0.026
C12U C27A G65A G85A	≤ 0.026
C12A G18U U70C	≤ 0.026
C12G G28C U58A G78A	≤ 0.026
C12A G25C G66C C81G A89C	≤ 0.026
C12U U21G U22G C27A C34A	≤ 0.026
C12U G19U C27U U63A G65A A87U	≤ 0.026
A13C U17C U22G G85A	0.81
C12A G67U	≤ 0.026
C12A G67C	≤ 0.026
C12U A60G	0.406
C12U G59A G65C	≤ 0.026
C12A G15A G18C A31G A54C C77A	≤ 0.026
C12U U21G C77U	≤ 0.026
